Among the data in PubChem BioAssay (NCI) are GI50 and TGI values, retold here.

Each structure is given as a SMILES string.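 1) Cells in 96-well plates. 2) Compound, 48 h, 5 concentrations. 3) Linear interpolation between surrounding doses. 4) Unreached endpoint = highest concentration. The concentration for 50% growth inhibition is given as GI50. Definition used: TGI = concentration required for complete inhibition of growth.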

The subject of the experiment is NCI-H322M lung. The experiment is described as follows: NCI anticancer screen, dose series, 48 h.

With `O=C(Cn1c(-c2ccccc2)nc2ccccc21)N=Nc1c(O)[nH]c2ccc(Br)cc12`, the GI50 was 14.1 µM and the TGI was determined as 30.5 µM.
Turning to `C=C(c1ccc(OC)c(N)c1)c1cc(C)nc2ccccc12`, the GI50 was < 0.01 µM and the TGI was > 100 µM.
